We go through 80 molecules from publication PMC12040169 (PLOS Biology, 2025).

SMILES strings stand for the structures. The list shows a part of the results.

The subject of the test is T1, C. trachomatis L2/434/Bu expressing GFP (CTL2-GFP).
T1 construct: L2/434/Bu GFP intracellular growth in HeLa cells
The arrangement: species or system HeLa; C. trachomatis total inclusion area by high-content imaging, normalised to DMSO. The note with it: total inclusion area; 28.5 h, 10 µM; inhibitor. In a few lines: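 Following bulk GFP and resorufin fluorescence reads, infected cells were fixed, Hoechst-stained and imaged on a high-content platform. Inclusion total area and number per well served as growth proxies; nuclei counts indicated host viability. MICs were derived as for the fluorescence assay.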
Take `COc1cc(C=CC(=O)O)cc(S(=O)(=O)Nc2ccccc2C(=O)NCCc2ccccc2)c1OC` [CBK297487]: the “% of control remaining” value is recorded as 68.2788.

As to `COc1cccc(C(=O)Nc2nn(Cc3ccc(C(F)(F)F)cc3)c3ccccc23)c1` [CBK048273], the “% of control remaining” value is 90.1873.

Regarding `COc1ccc(S(=O)(=O)NCCSCc2cccc(C)c2)cc1Cl` [CBK268477], the “% of control remaining” value is given as 77.6218.

For `Cc1cc(OCC(O)CN2CCN(Cc3ccc4c(c3)OCO4)CC2)cc(C)c1Cl` (centres unmarked) [CBK074374], the “% of control remaining” value came to 88.4628.

For the molecule `O=C1CSC(c2cccnc2)N1CCc1ccccn1` (centres unmarked) [CBK017292], the “% of control remaining” value amounted to 83.0035.

As for `COc1cc(OC)cc(-c2[nH][nH]c(=O)c2CCN)c1` [CBK288414], the “% of control remaining” value was 125.667.

Regarding `CC(C)(C)NC(=O)CNS(=O)(=O)c1ccccc1` [CBK265807], the “% of control remaining” value was 96.8084.

For `O=C(Nc1cccc(N2CCCC2)c1)c1cc(C2CC2)on1` [CBK283139], the “% of control remaining” value was determined as 87.6318.

Regarding `N#Cc1ccc(NC(=O)CC2(CC(=O)O)CCCC2)cc1` [CBK286979], the “% of control remaining” value is listed as 128.082.

Consider `O=C(Cn1cnc2c(c1=O)CCCC2)Nc1ccc(Cl)c(Cl)c1` [CBK304655], for which the “% of control remaining” value came to 89.979.

Turning to `O=C(O)C1(NCc2ccccc2Cl)CCCCC1` [CBK287269], the “% of control remaining” value turned out to be 113.318.

With `O=C(O)CN1C(=O)C(=Cc2ccc(-c3ccc(Br)cc3)o2)SC1=S` [CBK296075], the “% of control remaining” value amounted to 104.84.

As for `COc1ccccc1N1CC(C(=O)Nc2ccc(C(=O)O)cc2)CC1=O` (centres unmarked) [CBK269606], the “% of control remaining” value is reported as 95.2517.

On to `COc1ccc(CC(=O)N2CCC(c3cc4cnccc4[nH]3)CC2)cc1` [CBK283451], for which the “% of control remaining” value was determined as 75.5706.

On to `O=c1ccc2c(-c3cccc(C(F)(F)F)c3)ccnc2[nH]1` [CBK073733], for which the “% of control remaining” value worked out at 107.36.

In the case of `O=C(Cn1nc2n(c1=O)CCCCC2)NCc1ccccc1Cl` [CBK304642], the “% of control remaining” value was found to be 64.0295.

As to `CCn1c2cc(C)sc2c2cnn(CC(=O)N(C)C)c(=O)c21` [CBK284173], the “% of control remaining” value is 93.4111.

Take `COC1CCC(C(=O)Nc2cnc(-c3ccc(F)c(Cl)c3)c(-c3ccc(C(C)=O)s3)n2)CC1` (centres unmarked) [CBK036718]: the “% of control remaining” value is 116.44.

For `COC(=O)c1cc(-c2c[nH]c3ccccc23)n[nH]1` [CBK241010], the “% of control remaining” value stood at 107.605.

Take `CCN1CCN(C(=O)COc2cccnc2)CC1` [CBK200378]: the “% of control remaining” value worked out at 113.413.

In the case of `Clc1ccccc1-c1nccnc1NCc1ccncc1` [CBK037472], the “% of control remaining” value is given as 101.874.

As for `CC(C)c1ccc(NC(=O)CSc2n[nH]c(=O)n2-c2ccccc2)cc1` [CBK299826], the “% of control remaining” value came out at 115.725.

Consider `O=C(CSC1=NCCS1)Nc1ccc(Cl)cn1` [CBK057917], for which the “% of control remaining” value came out at 84.1105.

Regarding `CN1CCN(C(=O)c2ccc(-c3cnc4[nH]c(=O)n(Cc5ccncc5)c4n3)cc2)CC1` [CBK064679], the “% of control remaining” value stood at 141.347.

As for `CC(C)C(C(=O)Nc1ccc(S(=O)(=O)N2CCOCC2)cc1)N1C(=O)c2ccccc2C1=O` (centres unmarked) [CBK265607], the “% of control remaining” value was determined as 88.9317.

Regarding `CCOCCCC(=O)N1CCN(Cc2nnc3n2CCCCC3)CC1` [CBK305298], the “% of control remaining” value turned out to be 81.9487.

Turning to `CN(C)CCC1CCCCN1C(=O)[C@@H]1C[C@@H]2C=C[C@H]1C2` (some centres unmarked) [CBK282054], the “% of control remaining” value is 115.827.

In the case of `CC(C)[C@@H](CO)Nc1nc(-c2cccnc2)cn2ccnc12` [CBK037539], the “% of control remaining” value amounted to 81.8626.

As for `COc1ccc(NC(=O)CSc2cnn[nH]2)c(OC)c1` [CBK269969], the “% of control remaining” value stood at 89.4458.

With `O=C(Nc1c(F)cc(F)cc1OC1CCNCC1)c1ccccn1` [CBK050274T], the “% of control remaining” value was determined as 84.7722.

On to `OC1(C(F)(F)F)C=C(c2cccs2)ON1` (centres unmarked) [CBK006243], for which the “% of control remaining” value is given as 80.2358.

Take `CC(C)(C)OC(=O)N[C@@H](Cc1ccccc1)CN(Cc1ccccc1)Cc1ccc(S(=O)(=O)N2CCOC2=O)cc1` [CBK028952]: the “% of control remaining” value is 68.6329.

As for `CC(=O)N1Cc2cc(C)ccc2OC2(CCN(CC3CC3)CC2)C1` [CBK285021], the “% of control remaining” value worked out at 104.41.

Turning to `O=C(Nc1ccc(S(=O)(=O)Nc2cncs2)cc1)c1ccc(-c2cccc(C(F)(F)F)c2)o1` [CBK266625], the “% of control remaining” value is 54.3278.

Regarding `COC(=O)[C@H]1CN(C(=O)Cc2ccccn2)C[C@@H]1c1ccc(F)cc1` [CBK283519], the “% of control remaining” value is on record as 102.913.

As for `Cc1cc(C)c(OCC(=O)Nc2cccc(-c3nc4cc(C(C)C)ccc4o3)c2)c([N+](=O)[O-])c1` [CBK264680], the “% of control remaining” value worked out at 94.614.

`CN1C(=O)/C(=C2\SC(=S)N(C(CCC(=O)O)C(=O)O)C2=O)c2ccccc21` (centres unmarked) [CBK261010]: the “% of control remaining” value is listed as 94.7279.

Regarding `CSCCN1CCC(C(=O)c2ccc(F)cc2)CC1` [CBK149145], the “% of control remaining” value was 107.029.

As to `O=C1CC2(CCN(C(=O)C3CCOC3)CC2)Oc2c(Br)cc(Br)cc21` (centres unmarked) [CBK156512], the “% of control remaining” value amounted to 94.5083.

On to `O=C(c1cnc2cc(Cl)ccc2c1O)N1CCN(c2ncccn2)CC1` [CBK107358], for which the “% of control remaining” value is given as 97.2505.

On to `CCOc1ccc(Nc2nc(-c3ccc(C)cc3C)c(CC(=O)O)s2)cc1` [CBK264187], for which the “% of control remaining” value is given as 10.5592.

On to `Cc1ccc(S(=O)(=O)NC(C)(C)CSc2nnc(N)s2)cc1` [CBK266350], for which the “% of control remaining” value was found to be 123.469.

For `Cn1c(CN2CCN(c3ccc(C#N)cc3)CC2)nnc1[C@H]1C[C@@H](N)C1` [CBK306985], the “% of control remaining” value is given as 100.419.

On to `O=C(C1CC1)N1CC(n2nc(-c3cccs3)ccc2=O)C1` [CBK284650], for which the “% of control remaining” value is on record as 52.5658.

Take `CCCC/C=C/c1cncc(NCCc2c[nH]c3ccccc23)n1` [CBK066081]: the “% of control remaining” value came out at 83.7235.

For the molecule `CCC1c2ccc(C)n2CCN1C(=O)c1cc(-c2ccccn2)n[nH]1` (centres unmarked) [CBK283225], the “% of control remaining” value was 102.354.

`CCC(CC)C(=O)N1C[C@H]2CCc3cn(CCNC(C)=O)nc3[C@H]2C1` [CBK282183]: the “% of control remaining” value was determined as 84.7461.

With `CN1CCN(C(=O)CN(c2ccccc2)S(=O)(=O)N(C)C)CC1` [CBK268079], the “% of control remaining” value worked out at 84.0214.

With `c1ccc(CCCN2CCN(Cc3ccccc3)CC2)cc1` [CBK261878], the “% of control remaining” value is reported as 104.326.

Regarding `CC(C)(C)OC(=O)N1CCN(c2ccccc2O)CC1` [CBK003878], the “% of control remaining” value was 98.703.

In the case of `CCCSc1nnc(NC(=O)c2nc(SC)ncc2Cl)s1` [CBK268759], the “% of control remaining” value amounted to 86.8353.

With `Cc1cc(C)c(NC(=O)CSc2ncccc2-c2nc(C)no2)c(C)c1` [CBK287821], the “% of control remaining” value is 100.084.

For the molecule `CCOC(=O)CNC(=O)c1cc(Br)c(OC)c(OC)c1` [CBK058454], the “% of control remaining” value amounted to 32.7162.

Take `O=C(c1ccco1)N1CCN(c2cc(-c3cccc4cccnc34)ncn2)CC1` [CBK091117]: the “% of control remaining” value worked out at 127.874.

Consider `Cc1ccc([N+](=O)[O-])cc1NC1OCC(O)C(O)C1O` (centres unmarked) [CBK262026], for which the “% of control remaining” value was 108.546.

On to `CC(C)=NNC(=O)Nc1nonc1N` [CBK027368], for which the “% of control remaining” value turned out to be 78.9955.

Take `O=C(NC[C@H]1O[C@@H](CC(=O)N2CCCC2)[C@H](O)[C@@H]1O)c1ccccc1` [CBK288907]: the “% of control remaining” value is reported as 84.3823.

On to `OCCOc1ccccc1OCCO` [CBK260930], for which the “% of control remaining” value worked out at 98.2513.

`Cc1cccc(Nc2ncc(Cc3ccccc3C)s2)n1` [CBK287849]: the “% of control remaining” value amounted to 96.6534.

As to `Cc1ccc(-c2c(C(=O)NNC(=S)NCc3ccco3)csc2C)cc1` [CBK266992], the “% of control remaining” value amounted to 89.6652.

Regarding `CNC(=O)[C@@H]1CN(Cc2ccccc2)C[C@H]1C(=O)c1ccc(F)cc1` [CBK282902], the “% of control remaining” value is reported as 97.2097.

Regarding `NC(=O)c1c(NC(=O)NCc2cccnc2)sc2c1CCC2` [CBK307578], the “% of control remaining” value is reported as 9.846.

For `CC(C)[C@H](NS(=O)(=O)c1ccc(Cl)cc1)C(=O)NCc1ccc(Cn2cccn2)cc1` [CBK295611], the “% of control remaining” value came out at 54.7931.

Regarding `CC(C)[C@H](CO)Nc1nccnc1-c1cccc(O)c1` [CBK037542], the “% of control remaining” value is reported as 73.2818.

`O=C(Nc1cccc(CCc2nc3ccccc3[nH]2)c1)c1ccc(Cn2cncn2)cc1` [CBK285648]: the “% of control remaining” value is on record as 71.0913.

Turning to `O=C(NC(=S)Nc1cccc(-c2nc3ccccc3s2)c1)c1cc([N+](=O)[O-])ccc1N1CCOCC1` [CBK268789], the “% of control remaining” value was 95.8188.

`COc1ccc(-c2cnc(NCC3CC3)c(C(=O)NCc3ccco3)c2)cc1` [CBK076283]: the “% of control remaining” value turned out to be 54.4204.

As to `O=C(NCC1(O)CCSCC1)c1ccc2ccccc2n1` [CBK305211], the “% of control remaining” value worked out at 81.5512.

For `CC1Cc2cc(C(O)(CCN(C)C)c3ccccc3)ccc2O1` (centres unmarked) [CBK011764], the “% of control remaining” value is given as 45.7975.

For the molecule `CNC(=O)C1(Cc2cccc(-c3cccs3)c2)CCN(C(=O)Cc2ccccc2)CC1` [CBK285745], the “% of control remaining” value is 123.759.

Turning to `O=C(O)CCCN1C(=O)/C(=C/c2c[nH]c3ccccc23)SC1=S` [CBK262580], the “% of control remaining” value amounted to 85.3206.

Regarding `CC(C)N(C(=O)Cn1c(-c2ccco2)cc2cccnc21)C(C)C` [CBK282682], the “% of control remaining” value is given as 90.1201.

With `CN(C)CC1CCCN(C(=O)[C@@H]2C[C@@H]3C=C[C@H]2C3)C1` (some centres unmarked) [CBK282063], the “% of control remaining” value stood at 104.02.

Take `Cc1cc(=O)n2ncn(CC(=O)NCCOc3ccccc3)c2c1` [CBK305823]: the “% of control remaining” value is 72.7423.

As for `O=C(CN1CCC(Cc2ccccc2)CC1)Nc1ccc(S(=O)(=O)N2CCOCC2)cc1` [CBK268451], the “% of control remaining” value is 112.162.

In the case of `Cc1nn2c(O)c3c(nc2c1-c1cccs1)CCC3` [CBK283729], the “% of control remaining” value turned out to be 78.599.

For `Cc1cc(C)nc(NC(=O)c2c(Cl)cccc2Cl)n1` [CBK058401], the “% of control remaining” value turned out to be 91.8977.

For the molecule `OCC(O)/C=N/Nc1nc(N2CCCCC2)nc(N2CCCCC2)n1` (centres unmarked) [CBK019423], the “% of control remaining” value was 73.6907.

With `O=C(NCc1cccc(C(F)(F)F)c1)N1CCCCC1CO` (centres unmarked) [CBK156165], the “% of control remaining” value was 98.2576.

Take `COc1ccc(OCCNC(=O)c2cc(-c3cccnc3)cnc2N2CCOCC2)cc1` [CBK076341]: the “% of control remaining” value is reported as 101.74.
